# B1: Pseudophosphorylated S422E tau (natural protein)
# chain: not shown
# Biological target: the molecule itself
# Assay: SDS-PAGE and immunoblot of SDS-stable dimers
protein,measurement,value
B1,stoichiometry N,2

# From paper PMC4992631 (Experimental neurology, 2016)
